SMILES strings stand for the structures. Values joined by “and” are separate entries in the source; they are usually repeats but may differ in a detail not shown here. Equal entries are not always repeated. Over roughly 5,300 compounds, “PER2::LUC luminescence relative to vehicle control” has its median near 0.96; the highest 2% begin near 1.3. The list shows a part of the results.

The assay concerns mPer2Luc MEF. Briefly: PER2::LUC luminescence relative to vehicle control (fold of vehicle); higher = higher PER2::LUC reporter signal. Conditions: 10 µM. In a few lines:
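In 384-well plates, ~3000 mPer2Luc reporter mouse embryonic fibroblasts per well were cultured in DMEM with 10% FBS at 37 °C and 5% CO2 for 48 h before compounds from commercial libraries were added at 10 μM. ONE-Glo luciferase readings were taken 24 h and 30 h after treatment. Each value is PER2::LUC luminescence given as fold of vehicle control.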

As to `CCCCOc1ccc(C(=O)Nc2ccc(F)cc2F)cc1`, the “PER2::LUC luminescence” value by setting is: (time after treatment 24 h) 1.29; (time after treatment 30 h) 1.34.
On to `Nc1nc(OCc2cc(Br)cs2)c2[nH]cnc2n1`, for which the “PER2::LUC luminescence” value was determined as 0.785 (time after treatment 24 h) and 0.946 (time after treatment 30 h).
The corresponding values for `Clc1ccc2nsnc2c1NC1=NCCN1` are 1.02 and 0.976.
Turning to `Cc1cc(Nc2cc(N3CCN(C)CC3)nc(Sc3ccc(NC(=O)C4CC4)cc3)n2)n[nH]1`, the “PER2::LUC luminescence” value turned out to be 0.563 (time after treatment 24 h) and 0.414 (time after treatment 30 h).
On to `O=C(O)CCC(C(=O)O)N1C(=O)c2ccccc2C1=O` (configuration not stated), for which the “PER2::LUC luminescence” value by setting is: (time after treatment 24 h) 0.925; (time after treatment 30 h) 1.06.
For `NC1(Cc2ccc(Cl)cc2)CCN(c2ncnc3[nH]ccc23)CC1`, in that order: 0.438 and 0.584.
The corresponding values for `CC(C)CC[C@@H](O)[C@](C)(O)[C@H]1CC[C@@]2(O)C3=CC(=O)[C@]4(O)C[C@@H](O)[C@@H](O)C[C@]4(C)[C@H]3[C@H](O)C[C@]12C` are 1.22 and 1.26.
On to `O=C(CCCl)NCCc1ccccc1`, for which the “PER2::LUC luminescence” value runs as follows: (time after treatment 24 h) 1.07 and 1.1; (time after treatment 30 h) 1.03 and 0.991.
For the compound `Cn1nnnc1SCC1=C(C(=O)O)N2C(=O)[C@@H](NC(=O)C(OC=O)c3ccccc3)[C@H]2SC1` (some centres not stated), the “PER2::LUC luminescence” value worked out at 0.605 (time after treatment 24 h) and 0.705 (time after treatment 30 h).
As to `OC[C@@H](O)[C@@H](O[C@@H]1O[C@H](CO)[C@@H](O)[C@H](O)[C@H]1O)[C@H](O)[C@@H](O)CO`, the “PER2::LUC luminescence” value came out at 0.932 (time after treatment 24 h) and 0.857 (time after treatment 30 h).
Take `CCOC(=O)C1=C(N)Oc2ccc(Br)cc2C1C(C#N)C(=O)OCC` (configuration not stated): the “PER2::LUC luminescence” value runs as follows: (time after treatment 24 h) 0.958; (time after treatment 30 h) 0.94.
Turning to `COc1cc(O)c2c(=O)cc(C)oc2c1CC=C(C)C`, the “PER2::LUC luminescence” value (time after treatment 24 h) was determined as 0.883 and the “PER2::LUC luminescence” value (time after treatment 30 h) amounted to 0.963.
For `O[C@@](Cc1ncc(CC2(C(F)(F)F)CC2)[nH]1)(c1ccc(-n2cccn2)cc1)C(F)(F)F`, in that order: 0.966 and 0.921.
The corresponding values for `CC(C)[C@@H]1C(=O)N(S(C)(=O)=O)[C@@H]2CCN(C(=O)/C=C/CN3CCCCC3)[C@H]21` are 1.04 and 0.988.
Take `Cc1ccc(S(=O)(=O)Nc2nc3ccccc3nc2Nc2ccc3nsnc3c2)cc1`: the “PER2::LUC luminescence” value reads like this: (time after treatment 24 h) 1.06; (time after treatment 30 h) 1.04.
For `O=[N+]([O-])c1ccc(Nc2nc(N3CCOCC3)nc(N3CCOCC3)n2)cc1`, in that order: 0.79 and 0.79.
In the case of `CCCCOc1cc(C(=O)OCCN(CC)CC)ccc1N`, the “PER2::LUC luminescence” value was 0.825 and 0.797 (time after treatment 24 h); 0.997 and 0.806 (time after treatment 30 h).
For the compound `NC(N)=N[C@@H](CCC(=O)O)C(=O)O`, the “PER2::LUC luminescence” value (time after treatment 24 h) stood at 1.09 and the “PER2::LUC luminescence” value (time after treatment 30 h) was found to be 0.976.
The corresponding values for `N#C/C(=C1/SC[C@@H](c2ccc(Cl)cc2Cl)S1)n1ccnc1` are 1.34 and 1.11.
On to `C[N+](C)(C)CC(O)CC(=O)[O-]` (configuration not stated), for which the “PER2::LUC luminescence” value runs as follows: (time after treatment 24 h) 0.975 and 0.949; (time after treatment 30 h) 0.995 and 0.892.
Regarding `Nc1nc(=O)n([C@@H]2CS[C@H](CO)O2)cc1F`, the “PER2::LUC luminescence” value amounted to 1.13 (time after treatment 24 h) and 1.23 (time after treatment 30 h).
For `COc1ccc(Cl)cc1C(=O)NCCc1ccc(S(=O)(=O)NC(=O)NC2CCCCC2)cc1`, the “PER2::LUC luminescence” value is 1.05 and 0.953 (time after treatment 24 h); 1.01 and 0.842 (time after treatment 30 h).
`CC[C@@H]1C(=O)N(C)c2cnc(Nc3ccc(C(=O)N[C@H]4CC[C@H](N5CCN(CC6CC6)CC5)CC4)cc3OC)nc2N1C(C)C`: the “PER2::LUC luminescence” value (time after treatment 24 h) was 0.051 and the “PER2::LUC luminescence” value (time after treatment 30 h) was 0.064.
`CCc1cccc(CC)c1NC(=O)N1Cc2[nH]nc(NC(=O)c3ccc(N4CCN(C)CC4)cc3)c2C1`: the “PER2::LUC luminescence” value (time after treatment 24 h) stood at 0.711 and the “PER2::LUC luminescence” value (time after treatment 30 h) is 0.658.
In the case of `CC#C[C@]1(O)CC[C@H]2[C@@H]3CCC4=CC(=O)CCC4=C3[C@@H](c3ccc(N(C)C)cc3)C[C@@]21C`, the “PER2::LUC luminescence” value was determined as 0.718 (time after treatment 24 h) and 0.823 (time after treatment 30 h).
On to `COc1cc(SC)ccc1C(=O)N1CCC(Cc2ccccc2)CC1`, for which the “PER2::LUC luminescence” value by setting is: (time after treatment 24 h) 0.982; (time after treatment 30 h) 0.976.
On to `Cc1ncc(-c2csc(N=C(N)N)n2)[nH]1`, for which the “PER2::LUC luminescence” value was found to be 1.07 (time after treatment 24 h) and 1.03 (time after treatment 30 h).
For `COC(=O)C1=CO[C@@H](O)[C@@H]2C(CO)=CC[C@H]12`, in that order: 0.961 and 0.959.
Regarding `Cc1nc(C(=O)NCC(=O)O)c(O)c2ccc(Oc3ccccc3)cc12`, the “PER2::LUC luminescence” value reads like this: (time after treatment 24 h) 1.06 and 0.974; (time after treatment 30 h) 1.07 and 0.971.
`CCCCCCNC(=O)n1cc(F)c(=O)[nH]c1=O`: the “PER2::LUC luminescence” value (time after treatment 24 h) was determined as 1.19 and the “PER2::LUC luminescence” value (time after treatment 30 h) was determined as 1.06.
On to `CCC[C@@H]1C[C@@H](C(=O)N[C@@H]([C@H]2O[C@H](SC)[C@H](OP(=O)(O)O)[C@@H](O)[C@H]2O)[C@H](C)Cl)N(C)C1`, for which the “PER2::LUC luminescence” value by setting is: (time after treatment 24 h) 1.07; (time after treatment 30 h) 1.01.
Take `CCCOc1ccccc1-c1nc2[nH]nnc2c(=O)[nH]1`: the “PER2::LUC luminescence” value was found to be 1.08 (time after treatment 24 h) and 1.04 (time after treatment 30 h).
Turning to `Cn1cc(C(F)(F)F)nc1-c1ccc(OCC(O)CNCCOc2ccc(O)c(C(N)=O)c2)cc1` (configuration not stated), the “PER2::LUC luminescence” value is 0.984 (time after treatment 24 h) and 1.01 (time after treatment 30 h).
`CN1CCN2c3ncccc3Cc3ccccc3C2C1` (configuration not stated): the “PER2::LUC luminescence” value is, setting by setting: (time after treatment 24 h) 1.03 and 0.928; (time after treatment 30 h) 0.815 and 0.834.
As for `CC[C@H](NC(=O)[C@H](C)NC)C(=O)N1C[C@@H](O)C[C@H]1Cc1c(-c2[nH]c3cc(F)ccc3c2C[C@@H]2C[C@H](O)CN2C(=O)[C@H](CC)NC(=O)[C@H](C)NC)[nH]c2cc(F)ccc12`, the “PER2::LUC luminescence” value by setting is: (time after treatment 24 h) 0.958; (time after treatment 30 h) 0.884.
Take `NCCC(=O)N[C@@H](Cc1c[nH]cn1)C(=O)O`: the “PER2::LUC luminescence” value reads like this: (time after treatment 24 h) 0.96; (time after treatment 30 h) 0.972.
`CC(C)N(CC[C@H](c1ccccc1)c1cc(CO)ccc1O)C(C)C`: the “PER2::LUC luminescence” value is 1.03 and 0.99 and 0.999 (time after treatment 24 h); 1.06 and 1.02 and 0.965 (time after treatment 30 h).
For the compound `CC(C)[C@H](N)C(=O)OCCOCn1cnc2c(=O)nc(N)[nH]c21`, the “PER2::LUC luminescence” value was 0.906 and 0.989 (time after treatment 24 h); 1.02 and 0.842 (time after treatment 30 h).
For the compound `Cc1cc(C)nc(NS(=O)(=O)c2ccc(N)cc2)n1`, the “PER2::LUC luminescence” value is, setting by setting: (time after treatment 24 h) 0.964 and 1.02; (time after treatment 30 h) 1.01 and 0.926.
As for `CC1(C)O[C@@H]2C[C@H]3[C@@H]4C[C@H](F)C5=CC(=O)C=C[C@]5(C)[C@@]4(F)[C@@H](O)C[C@]3(C)[C@]2(C(=O)CO)O1`, the “PER2::LUC luminescence” value was 0.902 (time after treatment 24 h) and 1.15 (time after treatment 30 h).
For `COc1cc(NS(=O)(=O)c2ccc(N)cc2)ncn1`, in that order: 0.924 and 1.09.

Source of the values: the supplement of paper PMC9334596.
